From PubChem BioAssay AID1963576 (National Center for Advancing Translational Sciences (NCATS), 2024)
In all, about 46,000 compounds went through this assay and about 60 (0.1%) were called active. Inconclusive results (about 3%) are left out. The call rests on the fitted dose curve; in most records, active means well fitted inhibition curve with a large enough effect; inconclusive means small, poorly fitted or top-dose-only effect; inactive means no such curve, though single readings can be large or run the other way. Some of the results follow.

Experiment: Primary qHTS assay for Inhibitors of ovarian cancer metastasis using an organotypic tumor microenvironment (TME) model. Further: nearly all actives have a fitted effect of over 65% in size.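 On activity change, negative = inhibition: plate controls were DMSO wells for no effect and tomatine positive control wells for full effect.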
Settings: SKOV3ip1-GFP adhesion/invasion on 3D omental model, fluorescence; series mostly up to 45.8 µM; activity change, negative = inhibition: at the top concentration
Procedure, shortened: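 qHTS, 4-pt dose (0.36-46 umol/L); SKOV3ip1-GFP, 1,200 cells/well, no FBS; primary omental fibroblast/mesothelial co-culture 48 h pre-grown; 2 h RT + 16 h 37 C; PBS wash, 4% PFA; GFP count 488/509 nm.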

Activity change, negative = inhibition, inactive:
CCOc1ccc(NC(=O)Cn2cc(C(=O)C3CC3)c3ccccc32)cc1 1.4%, COc1ccc(NC(=O)CCCc2nnc3n(C(C)C)c(=O)c4sccc4n23)cc1Cl 18.3%, CCOc1ccc(NC(=O)Cn2c(=O)nc(-c3ccccc3)c3ccccc32)cc1 11.6%, Cc1ccc(C)c(NC(=O)CSc2cn(CC(=O)N3CCCCC3)c3ccccc23)c1 -7.6%, COc1ccc(OC(=O)c2cc(-c3ccc4c(c3)OCCO4)on2)cc1 -9.73%, Cc1nc2ccc(S(=O)(=O)NCC(=O)NCc3ccc(Cl)cc3)cc2s1 -12.9%, COc1ccccc1N1CCN(c2ncc3c(n2)CCN(Cc2ccccc2C)C3)CC1 4.14%, Cc1ccc(OCC(=O)OCc2cc(=O)n3ccsc3n2)cc1C -5.09%, Cc1nn(-c2ccccc2)c(-n2cccc2)c1C(=O)NCCCN1CCN(c2ccccc2F)CC1 -3.28%, COc1cc(Cl)c(NC(=O)CN2C(=O)c3cccnc3Sc3ccccc32)c(OC)c1 14.3%, CC(C)c1ccc(NC(=O)Cn2nnc(C(=O)NCCc3ccccc3)c2N)cc1 -10.2%, Cc1cccc2nc(-c3ccc(Cl)s3)c(Nc3ccc4c(c3)OCCO4)n12 -19.7%, COc1ccc(NC(=O)C(Cc2ccccc2)NS(=O)(=O)c2ccc3c(c2)oc(=O)n3C)c(OC)c1 (stereo not given) 3.45%, CCOc1ccc(-c2cc3nc(C4CCN(C(=O)OC(C)(C)C)CC4)c(C(=O)Nc4cccc(Cl)c4C)cn3n2)cc1 6.66%, O=C1NC(NS(=O)(=O)c2ccccc2)(C(F)(F)F)C(=O)N1CCc1ccccc1 (stereo not given) 30.8%, CCOC(=O)c1ccc(NC(=O)c2noc3c2CCCC3)cc1 -2.96%, Brc1ccc(-c2cn3cc(Cc4ccccc4)sc3n2)cc1 -2.6%, COc1ccc(Cn2c(CNC(=O)Cc3ccc(OC)c(OC)c3)nc3cccnc32)cc1 -7.95%, O=S(=O)(NCCc1nnc2ccc(SCc3cccc(Cl)c3)nn12)c1ccccc1 15.6%, CC(=O)N1CCCc2cc(S(=O)(=O)N3CCCC(C(=O)Nc4ccc(F)cc4F)C3)ccc21 (stereo not given) 8.75%, Cc1ccc2[nH]c3c(=O)n(CC(=O)N4CCN(c5ccccc5F)CC4)ncc3c2c1 7.8%, CCN(c1ccccc1)c1ncnc2c1cnn2-c1ccc(OC)cc1 4.66%, O=C(CCC(=O)N1CCOc2ccccc21)NCc1cccs1 0.974%, O=C(NCC(c1ccco1)S(=O)(=O)c1ccc(Cl)cc1)c1ccc(C(F)(F)F)cc1 (stereo not given) 5.19%, COc1ccc(-c2cc(C(F)(F)F)c(C#N)c(SCC(=O)Nc3cccc(C)c3)n2)cc1 11.8%, CCC(C)n1c(=O)c2sccc2n2c(CCCC(=O)Nc3ccc(F)cc3)nnc12 (stereo not given) -0.486%, CCN(CCCNC(=O)CN1N=C(c2ccccc2)CCC1=O)c1cccc(C)c1 6.16%, O=c1[nH]c(=O)n(C2CCCO2)cc1F (stereo not given) 3.72% [at 92.2 µM], CCOC(=O)CCc1c(C)c2cc3c(c(C)c2oc1=O)OCN(CCc1ccccc1OC)C3 3.8%, COc1ccc(NC(=O)c2ccco2)cc1NC(=O)c1cccc(C)c1OC 5.11%, Cc1ccc(SCC(=O)Nc2ccc(O)c(-c3nc4cc(C)ccc4o3)c2)cc1 -3.73%, Cc1ccc(NC(=O)NC(C)c2c(-n3cccc3)sc(C)c2C)c(C)c1 (stereo not given) -19.2%, Cc1ccccc1-n1c(SCC(=O)c2ccccc2)nnc1-c1ccc(F)cc1 -6.63%, Cc1ccc(CNC(=O)CCCCCn2c(=O)c3sccc3n(CC(=O)C(C)(C)C)c2=O)cc1 2.11%, Cc1ccc2c(CN3CCN(c4ccc(Cl)cc4)CC3)cc(=O)oc2c1 -0.148%, COc1ccc(Cn2c(CCC(=O)Nc3cc(C)cc(C)c3)nc3cccnc32)cc1 -20.4%, O=C(Nc1ccccc1)C1CCN(S(=O)(=O)c2ccc3c(c2)CCCN3C(=O)C2CCC2)CC1 14.2%, Cc1ccc(NC(=O)CSc2nc(=O)n(Cc3ccncc3)c3c2CCC3)cc1Cl -5.21%, CCOc1cc(CNC(=O)CSc2n[nH]c(-c3ccccc3)n2)cc(OCC)c1OCC -0.391%, COC(=O)c1cc(NC2(c3ccccc3)C(=O)c3ccccc3C2=O)cc(C(=O)OC)c1 -3.98%, Cc1ccc(Cl)cc1N(C)C(=O)c1sc2nc3n(c(=O)c2c1C)CCCC3 -1.53%, COc1ccc(Nc2ncc(C(=O)Nc3cccc(OC)c3)c3ccccc23)cc1 -13.3%, Cn1c(=O)c2c(SCC(=O)Nc3ccc(F)cc3F)nc(C3CCCC3)nc2n(C)c1=O 10.8%, COc1ccccc1NC(=O)CSc1oc(-c2ccc(F)cc2)nc1S(=O)(=O)c1ccc(Br)cc1 -4.97%, Cc1ccccc1CNC(=O)c1ccc2[nH]c(C)c(C)c2c1 -8.35%, C[C@]12CC[C@@H]3c4ccc(O)cc4C[C@@H](CCCCCCCCCS(=O)CCCC(F)(F)C(F)(F)F)[C@H]3[C@H]1CC[C@H]2O (stereo not given in full) -17.6%, Cc1ccc(C)c(NC(=O)Cn2ccn(-c3ccc(F)cc3)c(=O)c2=O)c1 -4.06%, CSc1cccc(NC(=O)CN2C(=O)COc3ccc(S(=O)(=O)N4CCC(C)CC4)cc32)c1 -2.63%, Cc1cc(C)cc(Nc2cc(C)nc3nc(-c4ccco4)nn23)c1 6.09%, Cc1ccc(-c2nc3c4ccccc4n(CC(=O)N4CCN(c5ccc(F)cc5)CC4)c(=O)n3n2)cc1 6.46%, CCOC(=O)c1c(NC(=O)c2cc(-c3ccc(Cl)cc3)on2)sc(C)c1C 5.96%, CCC(C)NC(=O)Cn1c(-c2cccs2)cc2cc(Cl)ccc21 (stereo not given) -0.367%, Cc1ccc(CN(C(=O)c2ccccc2[N+](=O)[O-])c2ccccn2)cc1 1.52%, O=S(=O)(NCCc1csc2nc(-c3ccc(F)cc3)nn12)c1ccc(Oc2ccccc2)cc1 -0.151%, CCOc1ccc(CCNC(=O)c2ccc3c(c2)sc2nc(-c4ccc(F)cc4)cn23)cc1OCC -0.293%, Cc1cc(C)cc(N2C(=O)CCSC23C(=O)N(Cc2ccccc2)c2ccccc23)c1 (stereo not given) 28.8%, COc1ccc(-c2nc(-c3ccccc3)c(-c3ccc(F)cc3)[nH]2)c(OC)c1C -11.6%, CC(C)(C)NC(=O)c1ccc2nc(CCc3ccccc3)oc2c1 2.75%, CCOC(=O)c1[nH]c(C)c(CCC(=O)Nc2ccc(Br)c(C)c2)c1C 2.54%, COc1cc(C(=O)Nc2nonc2-c2ccc(Cl)cc2)cc(OC)c1OC 3.11%, Cc1nc2sccn2c(=O)c1S(=O)(=O)Nc1ccc(N2CCN(C(=O)C(C)C)CC2)cc1 1.98%, CCOC(=O)c1ccn(-c2nc(-c3cccc(OC)c3)cc(C(F)(F)F)n2)n1 -10.4%, Cc1ccc(N2CC(NC(=O)C3CC3)CC2=O)cc1C (stereo not given) -3.27%, CC(C)c1ccc(NC(=O)CCn2c(=O)c3cccn3c3ccccc32)cc1 3.31%, COc1cccc(NC(=O)N(Cc2c[nH]c3ccccc23)C2CCCCC2)c1 0.613%, Cc1ccc(C(CC(=O)Nc2ccc(F)c(Cl)c2)N2Cc3ccccc3C2=O)cc1 (stereo not given) 11.7%, Cc1cccc(CNC(=O)C2CCN(S(=O)(=O)c3ccc4c(c3)CCCN4C(=O)C3CCC3)CC2)c1 0.94%, CCCc1cnc2c(c1SCC(=O)Nc1ccccc1F)c(=O)n(C)c(=O)n2C -16.5%, CCOc1ccc(C(c2c(O)cc(C)n(Cc3ccco3)c2=O)N2CCN(c3ccccc3)CC2)cc1 (stereo not given) 8.31%, COc1ccc(NC(=O)CSC2=Nc3ccccc3C3=NC(CC(=O)NCc4ccc5c(c4)OCO5)C(=O)N23)cc1 (stereo not given) 2.63%, Cc1cccc(N2CCN(S(=O)(=O)c3c(C(=O)N4CCC(C)CC4)c(C)n(C)c3C)CC2)c1C -5.32%, COC(=O)c1ccc(NC(=O)CC2C(=O)N(c3ccccc3)C(=O)N2Cc2ccco2)cc1 (stereo not given) 2.32%, Cc1ccc(NC(=O)Cn2cnc3sc(C)c(S(=O)(=O)N4CCN(c5ncccn5)CC4)c3c2=O)cc1F 7.77%, Cn1nnnc1SCCCNCc1cc(Cl)ccc1OCc1ccccc1F -1.56%, CCc1nn(Cc2c(C)cc(C)cc2C)c(=O)c2cc3cc(C)ccc3n12 9.84%, O=C(Nc1ccc(F)cc1F)N1CCN(c2ccc(Cl)c(Cl)c2)CC1 -28.9%, CCCC12CN3CC(CCC)(CN(C1)C3c1c(C)[nH]c(=O)[nH]c1=O)C2=O (stereo not given) 0.406%, Cc1ccc(C2C=C(c3ccc(Cl)cc3)Nc3nc(NC(=O)c4ccco4)nn32)cc1 (stereo not given) 0.627%

outcome, inactive:
Cc1ccc2c(CNCCc3ccco3)c(C(=O)O)n(Cc3ccc(F)cc3)c2c1, CCOc1ccc(CN(CCc2ccc3c(c2)OCO3)Cc2cc(OC)cc(OC)c2)cc1, Cc1nc(N2CCOCC2)c2c(C(=O)N3CCN(c4cccc(C(F)(F)F)c4)CC3)c(C)oc2n1, Cn1cc(CCCC(=O)NCc2ccc(F)cc2)c2ccccc21, CC1CCN(S(=O)(=O)c2ccc3[nH]ccc3c2)CC1, Cc1cc(N2CCN(C)CC2)nc2ccc(NC(=O)Nc3ccc(F)cc3)cc12, COc1cccc(CC(=O)Nc2c(C(=O)N3CCN(c4ccccc4)CC3)oc3ccccc23)c1, Cc1ccc(Cn2c(SCc3ccc(C(=O)O)cc3)nc3cccnc32)cc1, O=C(Cn1c(=O)n(Cc2ccco2)c(=O)c2sc3ccccc3c21)Nc1ccc(F)cc1F, CSc1ncc(Cl)c(C(=O)Nc2c(C(=O)c3ccc(C)cc3)oc3ccccc23)n1, CCOc1ccc(CCNC(=O)c2ccc3nc(N4CCC(C)CC4)sc3c2)cc1OCC, CCOC(=O)c1cnc(N2CCN(c3ccc(C)cc3C)CC2)c2ccccc12, CC(C)(C)c1ccccc1NC(=O)c1cnn2c(C(F)F)cc(-c3ccccc3)nc12, Cc1cc(N2CCC(C(=O)NCCC(C)C)CC2)n2nc(C)c(-c3ccc(Cl)cc3)c2n1, COc1cccc(CNCCSc2nnnn2C)c1OCc1ccc(F)cc1, CCCCCc1nn2cc(-c3ccccc3)nc2s1, COc1cc(Nc2ncc3c(n2)CCN(Cc2cc(F)cc(F)c2)C3)cc(OC)c1
